Assay results from article PMC4336329 (PLoS ONE, 2015).
The whole screen tested about 310,000 compounds, of which about 2,200 (0.71%) showed an effect of 50% or more. The effect is printed as a negative number. The list shows a part of the results.

Molecular target: human ether-à-go-go-related gene (hERG) potassium channel (human, UniProt Q12809)
Assay: primary screen, population patch clamp on CHO cells stably expressing hERG

Chain of human ether-à-go-go-related gene (hERG) potassium channel (Q12809 whole entry, looked up): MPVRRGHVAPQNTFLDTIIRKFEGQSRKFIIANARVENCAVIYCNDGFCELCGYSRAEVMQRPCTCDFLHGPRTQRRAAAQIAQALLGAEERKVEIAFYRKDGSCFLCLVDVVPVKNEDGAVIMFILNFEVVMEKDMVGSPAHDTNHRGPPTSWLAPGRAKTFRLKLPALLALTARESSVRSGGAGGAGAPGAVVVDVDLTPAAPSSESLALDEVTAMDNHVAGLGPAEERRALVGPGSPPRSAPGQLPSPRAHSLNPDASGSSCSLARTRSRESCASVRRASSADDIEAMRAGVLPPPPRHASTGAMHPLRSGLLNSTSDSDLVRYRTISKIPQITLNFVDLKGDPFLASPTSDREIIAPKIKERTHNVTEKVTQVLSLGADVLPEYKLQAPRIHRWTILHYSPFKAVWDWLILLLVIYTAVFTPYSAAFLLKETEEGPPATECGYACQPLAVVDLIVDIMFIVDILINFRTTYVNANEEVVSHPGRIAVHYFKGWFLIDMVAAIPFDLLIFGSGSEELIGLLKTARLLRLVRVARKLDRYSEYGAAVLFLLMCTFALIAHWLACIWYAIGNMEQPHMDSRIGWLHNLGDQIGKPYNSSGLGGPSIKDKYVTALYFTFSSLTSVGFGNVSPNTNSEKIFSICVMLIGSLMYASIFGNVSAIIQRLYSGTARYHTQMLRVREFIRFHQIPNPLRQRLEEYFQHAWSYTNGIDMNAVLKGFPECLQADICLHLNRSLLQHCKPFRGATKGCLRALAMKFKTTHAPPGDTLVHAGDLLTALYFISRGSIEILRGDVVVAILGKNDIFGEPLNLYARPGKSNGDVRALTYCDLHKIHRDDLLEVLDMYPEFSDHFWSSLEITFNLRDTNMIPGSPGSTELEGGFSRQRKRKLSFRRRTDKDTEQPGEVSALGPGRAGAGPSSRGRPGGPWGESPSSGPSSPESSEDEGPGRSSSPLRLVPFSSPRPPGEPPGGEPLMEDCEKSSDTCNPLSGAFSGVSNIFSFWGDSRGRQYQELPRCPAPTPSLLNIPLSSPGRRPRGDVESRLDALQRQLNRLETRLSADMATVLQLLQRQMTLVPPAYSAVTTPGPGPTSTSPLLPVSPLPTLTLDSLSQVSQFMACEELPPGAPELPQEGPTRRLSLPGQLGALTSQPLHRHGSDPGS

Row | SMILES | hERG current change (%, negative = inhibition) at 1uM [%]
1 | COc1cc(C(=O)Nc2ccc(S(=O)(=O)Nc3nccc(C)n3)cc2)c([N+](=O)[O-])cc1OC | 12.6
2 | O=C(c1ccc(Cl)cc1)C12CN3CN(CN(C3)C1)C2 | 7.73
3 | Cc1ccc(-c2nnc(N(C)C(=O)c3ccncc3)s2)cn1 | 6.44
4 | O=C(OCc1nc2ccccc2s1)c1ccc([N+](=O)[O-])o1 | 17.5
5 | CCOc1ccccc1/C=N/NC(=O)c1cc(C(C)C)[nH]n1 | 10.7
6 | CC(OC(=O)C1CCN(S(=O)(=O)c2ccccc2)CC1)C(=O)Nc1ncc(Cl)cc1Cl (stereo not shown) | -30.2
7 | CCCNC(=S)N1CCC(NC(=O)c2cccc(C)c2)CC1 | 22.2
8 | CCC(C)(C)NC(=O)C(c1cccn1C)N(C(=O)Cn1nnc2ccccc21)c1ccc(OC)cc1 (stereo not shown) | 10.2
9 | O=C(Cc1ccccc1[N+](=O)[O-])NCCCc1ccccc1 | 13.9
10 | CCOC(=O)N1CCN(S(=O)(=O)c2ccc(C(=O)Nc3sc4c(c3C#N)CCC4)cc2)CC1 | 2.82
11 | O=C(NCc1n[nH]c(=O)c2ccccc12)C1CC(=O)N(c2ccccc2)C1 (stereo not shown) | 3.87
12 | Cc1[nH]n(-c2ccccc2)c(=O)c1/C=N/n1c(C)nc2ccccc2c1=O | 14.4
13 | O=C(CCN1C(=O)COc2ccccc21)N1CCCCC1 | -3.07
14 | COc1cccc(CC(=O)OCC(=O)c2cc(OC)ccc2OC)c1 | -10.1
15 | O=C(c1cccc(Br)c1)c1coc2ccc(O)cc12 | 10.4
16 | CC1CCN(CCCn2c(=S)[nH]c3ccccc3c2=O)CC1 | -13.5
17 | Cc1ccc(S(=O)(=O)N2CCOCC2)cc1NC(=O)COC(=O)COc1cccc2c1OC(C)(C)C2 | 9.09
18 | O=C(N/N=C/c1cccc([N+](=O)[O-])c1)c1ccc(COc2ccccc2-c2ccccc2)cc1 | 1.68
19 | CCC(C)(C)NC(=O)CN(Cc1ccc2c(c1)OCO2)C(=O)CCC(=O)Nc1ccccn1 | 8.54
20 | O=C(C1=C[C@@H](c2ccc(C(F)(F)F)cc2)C[C@@H](OCCCCO)O1)N1CCCCCCC1 | 17.4
21 | CN(C)/C=N/C(=S)Nc1ccc(Br)cc1F | 11.7
22 | NS(=O)(=O)c1ccc(CNS(=O)(=O)c2ccc3ccccc3c2)cc1 | 2.53

Row | SMILES | hERG current change (%, negative = inhibition) at 1uM [%]
23 | CCCNC(=O)c1ccc2nc(-c3ccccc3)c(-c3ccccc3)nc2c1 | 13
24 | CCc1ccccc1NC(=O)CC1SCCNC1=O (stereo not shown) | 24
25 | O=[N+]([O-])c1cc([N+](=O)[O-])c(Oc2cc(F)ccc2F)cc1NN1CCCCC1 | 22.2
26 | CCC(=O)c1ccc(SC(=O)N(C)C)cc1O | 14.2
27 | CCOC(=O)C1CCN(C(=O)/C=C/c2ccccc2OC)CC1 | -7.77
28 | COc1ccccc1Oc1ccc(S(=O)(=O)N2CCOCC2)cc1S(=O)(=O)N1CCOCC1 | -21.4
29 | CCNC(=O)N1CCOCC1 | 11.8
30 | NC(=O)CCS(=O)(=O)c1ccccc1 | 14.3
31 | COc1ccc(Cc2nc(-c3cccs3)no2)cc1 | 10.2
32 | COc1cccc(OC)c1C(=O)Nc1sc2c(c1C#N)CCC2 | 13.2
33 | O=C1C2CC=CCC2C(=O)N1CC1CCCO1 (stereo not shown) | 6.16
34 | Fc1ccc(Br)cc1/C=N/n1cnnc1 | 15
35 | O=S(=O)(Nn1c(O)c(C=C2N=c3ccccc3=N2)sc1=S)c1ccccc1 | 8.42
36 | O=C1CCNc2c(Cl)cc(Cl)cc21 | 11.6
37 | CCC1CCCCN1CCCNC(=O)c1ccc(CS(=O)(=O)c2ccccc2C)o1 (stereo not shown) | 2.22
38 | COc1ccc(CC(NC(C)=O)C(=O)N2CCN(C(=O)Nc3cccc(Cl)c3)CC2)cc1OC (stereo not shown) | 13.7
39 | O=C(CCC(=O)c1cccs1)Nc1nnc(C2CC2)s1 | 15.5
40 | O=C(NNc1nc2ccccc2nc1C(F)(F)F)c1ccccc1 | 11.7
41 | CC1=NN(c2ccccc2)C(=O)/C1=C\c1c(C)[nH]n(-c2ccccc2)c1=O | 6.91
42 | O=C(Nc1ccccc1C(F)(F)F)N1CCN(c2ccc3nncn3n2)CC1 | 9.93
43 | Cc1nnc(SCC(=O)Nc2ccc([N+](=O)[O-])cc2)n1CC1CCCO1 (stereo not shown) | -4.3
44 | CS(=O)(=O)N(CC(=O)N1CCN(c2cccc(Cl)c2)CC1)C1CCCCC1 | 9.72

Row | SMILES | hERG current change (%, negative = inhibition) at 1uM [%]
45 | O=C(CNC(=O)c1ccco1)NCC(=O)OC(C(=O)c1ccccc1)c1ccc(Cl)cc1 (stereo not shown) | 8.37
46 | CN1CCN(S(=O)(=O)c2cccc(C(=O)N3CCN(c4ccccc4F)CC3)c2)CC1 | 4.57
47 | Cc1ccc2c(c1)C(=O)C(=O)N2CCOc1ccccc1 | 11.5
48 | CCc1cc2c(SCC(=O)C(C#N)=C3N(C)c4ccccc4N3C)ncnc2s1 | 5.27
49 | CNC(=O)c1ccccc1-c1ccccc1 | 1.15
50 | CN1CCN(Cc2ccccc2C(F)(F)F)CC1 | 8.81
51 | Cc1ccc(CC2C(=O)N(c3ccc(C)cc3)C(=O)C2C)cc1 (stereo not shown) | 15.5
52 | Cc1ccc(C(=O)N/C(=C/c2cccs2)C(=O)NCc2ccco2)cc1 | 3.04
53 | O=C(COC(=O)/C=C/c1cn(-c2ccccc2)nc1-c1ccc2c(c1)OCCO2)NC1CCS(=O)(=O)C1 (stereo not shown) | 4.5
54 | COc1ccc(N2C(=O)C(CC(=O)O)S/C2=C\C(C)=O)cc1 (stereo not shown) | 15.6
55 | Cn1c(CCc2ccccc2)nnc1SCC(=O)N1CCOCC1 | -4.47
56 | O=C(COc1ccc(/C=N/NC(=O)c2ccccc2)cc1)Nc1ccc([N+](=O)[O-])cc1 | 16.2
57 | CN(CC(=O)Nc1ccc(N2CCOCC2)cc1)C(=O)Cc1ccccc1 | 7.9
58 | COCCCn1c2nc3ccccc3nc2c2c(=O)n(Cc3ccccc3Cl)cnc21 | 16.4
59 | CCOC(=O)c1ccc(NC(=O)N2CCN(C(=O)C3CCCO3)CC2)cc1 (stereo not shown) | 3.45
60 | COc1ccc(S(=O)(=O)N2C3CCC2CC(NC(=O)C2CC2)C3)cc1 (stereo not shown) | 23.5
61 | CCOc1ccccc1/C=C/c1onc(C)c1S(=O)(=O)N1CCC(C(=O)N2CCCCCC2)CC1 | 6.97
62 | O=C(CC(=O)Nc1ccc(Cl)c(Cl)c1)N/N=C/c1ccc(O)cc1 | 4.9
63 | Cn1cc(/C=N/n2cnc3scc(-c4ccc(Cl)cc4)c3c2=O)c2ccccc21 | 7.93
64 | NS(=O)(=O)c1ccc(CCNC(=O)c2cccc(S(=O)(=O)N3CCCC3)c2)cc1 | -5.92
65 | CC(C)Cn1c(-c2cccs2)nc2nc3ccccc3nc21 | 7.53
66 | O=C(O)C1CCCN1S(=O)(=O)c1ccc(Cl)c(Cl)c1 (stereo not shown) | 7.47

Row | SMILES | hERG current change (%, negative = inhibition) at 1uM [%]
67 | Cl.O=C(c1cccc(S(=O)(=O)N2CCCC2)c1)N1CCN(Cc2ccccc2)CC1 | -3.03
68 | Cc1cccc(C(=O)N=c2sccn2C)c1[N+](=O)[O-] | 5.88
69 | O=C(c1ccoc1)N1CCC2(CC1)Oc1ccc(Cl)cc1C(=O)C21CC(c2cccnc2)=NO1 (stereo not shown) | 4.16
70 | COc1cc(/C=N/NC(=O)c2cc(-c3cccs3)nc3ccccc23)ccc1O | 6.05
71 | Cc1cc(C(=O)N/N=C/c2sccc2C)no1 | 16.9
72 | COc1ccc(C(CC(=O)NCc2ccccc2)C(C)C)cc1 (stereo not shown) | 10.4
73 | O=C1/C(=C/c2cccnc2)CCC/C1=C\c1cccnc1 | 7.03
74 | CCN(CC)C(=O)CN1CCC(n2c(C)nc3cc(C(F)(F)F)ccc32)CC1 | -2.16
75 | Cc1cc(=O)oc2cc(OCC(=O)OCC(=O)N3CCC(C)CC3)ccc12 | 13.5
76 | CN(C)S(=O)(=O)c1ccc(Nc2ccc(-c3ccc4c(c3)OCCO4)nn2)cc1 | 4.91
77 | O=C(N/C(=C\c1ccc([N+](=O)[O-])cc1)C(=O)N1CCCCC1)c1ccccc1Br | -1.92
78 | Cc1ccc(C(=O)CCC(=O)NN2C(=O)NC3(CCCCC3)C2=O)cc1 | 17.3
79 | COc1coc(/C=C/C(=O)O)cc1=O | -0.733
80 | Cc1ccc2c(c1)N(CC(=O)N1CCCC(C)C1)C(=O)CO2 (stereo not shown) | 13.4
81 | CC1(C)OC(=O)C(=CNc2ccccc2F)C(=O)O1 | 1.48
82 | Cc1ccc(OCc2nc3c4c(ncn3n2)-c2ccccc2CC42CCCC2)cc1 | 11.9
83 | O=C(CNC(=O)c1ccncc1)Nc1ccc(F)c(F)c1 | -6.33
84 | COc1ccccc1NC(=O)C(C)OC(=O)CCCOc1ccccc1 (stereo not shown) | 7.07
85 | Cc1ccccc1C(=O)OC1OC(=O)C(Cl)=C1N1CCOCC1 (stereo not shown) | 6.26
86 | CCCOc1ccc(CCC(=O)N/N=C/c2ccco2)cc1 | 9.95
87 | O=C(COC(=O)/C=C/c1ccc(Cl)cc1)Nc1ccc2c(c1)OCCO2 | 5.94
88 | C=CCNC(=S)N/N=C(\C)c1cc(OC)c(OC)c(OC)c1 | 5.67
